Test results as given in the RNAGym collection of RNA variant scans (doi:10.7554/elife.90254).
The source gives no read counts; variants with many changes may rest on few reads.

B1: LINE1-mini (parent)
chain: GGCAGAGCUCAACACAGCGUGGCAAAGUGGCUGUGGCUAGACUGCC

Variants of: B1
Assay: self-cleavage, relative activity (ratio to wild type); higher = more cleavage; in vitro, sequencing; the parent is a self-cleaving ribozyme
Work on C10G C13U U32A yielded a self-cleavage of 0.02. Variant C10G A12G A16G C37A has a self-cleavage of 0.03. With C10A G19C G33U C45A the self-cleavage was 0. C10G A14G U43C C46U showed a self-cleavage of 0.01. C10G G17A G27C U28G U34A G40A showed a self-cleavage of 0.02. For C10A U28A U34G, the self-cleavage was 0.04. In the case of C10G C23U U28C G44U, the self-cleavage is reported as 0.01. For C10G C31G G36A G44A, the self-cleavage was 0.01. Variant C10A G21U C23G G30A has a self-cleavage of 0.03. Work on C10A U28A C42U yielded a self-cleavage of 0.38. Work on C10G C18U G30C G36C yielded a self-cleavage of 0.02. Variant C10G G21A G22C U32C U34C has a self-cleavage of 0.01. C10G A14C C42G gave a self-cleavage of 0.01. C10A G33U G36U showed a self-cleavage of 0. C10A G33U G36C gave a self-cleavage of 0.03. For C10A G29U C31U U43A, the self-cleavage was 0.01. C10G A11C C23U showed a self-cleavage of 0. C10G G22U C23A G27U U34C A39C showed a self-cleavage of 0.01. C10A G22C C31G showed a self-cleavage of 0.02. Variant C10G C18U G22A C46U has a self-cleavage of 0.11. C10G A24G G33A showed a self-cleavage of 0.03. For C10G C13U G17A A25G C46U, the self-cleavage was 0.04. C10G A11G A16C C46A showed a self-cleavage of 0. C10A G40U G44U gave a self-cleavage of 0.02. Variant C10G A25G G29C U38G C45U has a self-cleavage of 0.01. C10G C18A G33A G40C showed a self-cleavage of 0.02. C10G C15U C31A G36C showed a self-cleavage of 0.02. Variant C10A U20G C42A has a self-cleavage of 0. C10G C18G G21U A26C U43A C45G showed a self-cleavage of 0.01. For C10G G27C G33U, the self-cleavage was 0.02. Variant C10A G21A G30C G40A has a self-cleavage of 0. With C10G A11G A12G G36U the self-cleavage was 0.02. In the case of C10G A11C G17C, the self-cleavage is reported as 0.02. With C10G C13A C31U the self-cleavage was 0.04. Variant C10G A24C U34A C46G has a self-cleavage of 0.02. Work on C10G A11U U20G U32G C37A C42G yielded a self-cleavage of 0. In the case of C10G A16U G30A G33A A41U, the self-cleavage is reported as 0.02. With C10A G22A C37U the self-cleavage was 0.02. For C10G G17A G21U C42A, the self-cleavage was 0.01. Work on C10G C15G A41U U43G C46A yielded a self-cleavage of 0.02. C10A U20C G21C G40U gave a self-cleavage of 0.03. With C10G G21U U32G G44U C46A the self-cleavage was 0.01. In the case of C10G A12C G33A C46A, the self-cleavage is reported as 0.01. C10A U32G G40U showed a self-cleavage of 0.03. Work on C10G C23U G30U yielded a self-cleavage of 0.14. C10G A24U A25C U34G C45A showed a self-cleavage of 0. C10G C18A G22A C23G C46U showed a self-cleavage of 0.14. In the case of C10G G17U U28A G33A, the self-cleavage is reported as 0. C10A G21U A39G C42A gave a self-cleavage of 0.06. With C10A G19C G33A C37A the self-cleavage was 0.01. With C10A G35C G36U U43A the self-cleavage was 0. C10G G17A A25C C31A C37G showed a self-cleavage of 0.01. With C10G A25G G30C U32A U34A G35U C45G the self-cleavage was 0.01. C10G C15G C42U gave a self-cleavage of 0.04. C10G C15U U32A showed a self-cleavage of 0.01. With C10G C15U U32C the self-cleavage was 0.06. C10G A26U U32A C42G gave a self-cleavage of 0.03. C10G G27U U28A A39G gave a self-cleavage of 0.05. With C10A G19A A26U the self-cleavage was 0.07. For C10G G22U A39U, the self-cleavage was 0.15. For C10A G19U U32G C45G, the self-cleavage was 0.04. C10A G30C G35A C37A showed a self-cleavage of 0.01. C10A U32A G40C U43G gave a self-cleavage of 0.03. Variant C10A G33A C37A has a self-cleavage of 0.02. C10A G22U C23U gave a self-cleavage of 0.03. Work on C10G A14G C23A A39G yielded a self-cleavage of 0.02. With C10G A26G U43C the self-cleavage was 0.01. For C10A G17U G19C C37U, the self-cleavage was 0.01. In the case of C10G A16G G21A G33A, the self-cleavage is reported as 0.03. In the case of C10G A16U C18U G30U C42U, the self-cleavage is reported as 0.01. In the case of C10G C13G G17U G19U A26C, the self-cleavage is reported as 0. C10G A12C G17C A25C C31A G44U showed a self-cleavage of 0. With C10A G19A C23U G36A the self-cleavage was 0.01. C10A G35U C37A gave a self-cleavage of 0.01. In the case of C10A G21U U28G, the self-cleavage is reported as 0.06. In the case of C10G C23A A25U, the self-cleavage is reported as 0.16. C10A G21C A25U A26G gave a self-cleavage of 0.02. With C10G G27U U28G the self-cleavage was 0.06. Variant C10A G19C U28C G29C has a self-cleavage of 0.01. With C10G A12U A41C C46A the self-cleavage was 0.01. C10A U28G C37A showed a self-cleavage of 0.01. C10A G29U G35A U38G gave a self-cleavage of 0.04. C10G A16G G30U gave a self-cleavage of 0.04. With C10G G21U G40U C42A C46G the self-cleavage was 0.01. With C10G A12U U43C the self-cleavage was 0. Work on C10A G22U A24U G35U yielded a self-cleavage of 0.01. In the case of C10A G21A A41U, the self-cleavage is reported as 0.04. In the case of C10A G21A A41G, the self-cleavage is reported as 0.03. C10G C13A A24U C42A gave a self-cleavage of 0.02. Work on C10A G29C U34C yielded a self-cleavage of 0.02. C10G C13A C15A G19A G36C A41U gave a self-cleavage of 0.01. Variant C10G G27C G40U has a self-cleavage of 0.02. C10A U34G G35A gave a self-cleavage of 0.01. Variant C10A G21C G22A G30C has a self-cleavage of 0.07. Work on C10A U28C G40A yielded a self-cleavage of 0.02. In the case of C10G A14C G44A, the self-cleavage is reported as 0.05. Work on C10A G33C C46A yielded a self-cleavage of 0.03. With C10G A11G G17C C18G the self-cleavage was 0. C10G A11C C18A showed a self-cleavage of 0.02. C10G C13A U34C G35U C37U G44A showed a self-cleavage of 0.02. In the case of C10G A14U U34C U43C, the self-cleavage is reported as 0.01. C10G G22U C42U gave a self-cleavage of 0.12. Variant C10A G35A G40C C46A has a self-cleavage of 0.07. For C10A G19C G21U U32A, the self-cleavage was 0.01. In the case of C10A G19U U20C, the self-cleavage is reported as 0.04. Variant C10G C18G G33A C45A has a self-cleavage of 0.02. C10A G33U C45U gave a self-cleavage of 0.05. C10A U20G A26U C45U gave a self-cleavage of 0.01. C10A U28C G33C gave a self-cleavage of 0.04. With C10A G33A U34A the self-cleavage was 0.04. For C10A G22C A26U, the self-cleavage was 0.01. In the case of C10G A24C C37U, the self-cleavage is reported as 0.01. In the case of C10G C23A G27U C31G, the self-cleavage is reported as 0.07. For C10G G27C C42A, the self-cleavage was 0. With C10G C18G G35C the self-cleavage was 0.02. C10A G21U G22U A24C C31G U43G G44A gave a self-cleavage of 0.02. With C10G G19U C31A C46A the self-cleavage was 0.03. C10G G19U C23U gave a self-cleavage of 0.06. C10G G21U G22U A25C G29A C42G showed a self-cleavage of 0.01. C10G G17A G44C showed a self-cleavage of 0.03. For C10G C15G G30U, the self-cleavage was 0.04. In the case of C10G G21C A25U G30A U32C U34A C45G, the self-cleavage is reported as 0. Variant C10G C13U A16U has a self-cleavage of 0.03. Work on C10G G21C G36C C37A C42G yielded a self-cleavage of 0.01. C10G A24U A26C C37G G40U gave a self-cleavage of 0.02. C10G C37A C42U showed a self-cleavage of 0.02. Work on C10G G22A U34A U38A yielded a self-cleavage of 0.03. Work on C10G C13A G17U A25C C37U A41U C42U yielded a self-cleavage of 0.01. In the case of C10G G21U G36C G44A, the self-cleavage is reported as 0.01. For C10G A11U G17A G36U C42A, the self-cleavage was 0.01. In the case of C10A G19C G29A, the self-cleavage is reported as 0.02. C10A U38C A39G G44A showed a self-cleavage of 0. C10A G17U G40A showed a self-cleavage of 0.02. C10G G17U C46A gave a self-cleavage of 0.05. C10G G17C G21U C46A showed a self-cleavage of 0.33. C10A G33U U38G showed a self-cleavage of 0. Work on C10G C23U G33U C37A yielded a self-cleavage of 0. Work on C10G G19U A24G yielded a self-cleavage of 0.04. C10G A25C G30A G35U A39U showed a self-cleavage of 0.02. For C10G A14U U32C, the self-cleavage was 0.02. For C10G G19C U34C, the self-cleavage was 0.07. In the case of C10G A14G G17U A24G A25U, the self-cleavage is reported as 0.02. In the case of C10G G17C C18U C37U U43C, the self-cleavage is reported as 0. For C10G G17C C23G G44U, the self-cleavage was 0.02. C10G C18U G29U gave a self-cleavage of 0.04. Variant C10G C23U G36U A41G U43A has a self-cleavage of 0. C10G C13U C18U C23G U28G G30A G33A U43A gave a self-cleavage of 0.01. Work on C10A G19U G33C G40U C46U yielded a self-cleavage of 0.03. Work on C10A U34G G44A yielded a self-cleavage of 0.01. With C10A G33U C46A the self-cleavage was 0.02. Work on C10A G35A G40C yielded a self-cleavage of 0.02. For C10G C13A U34G, the self-cleavage was 0.04. Work on C10G A11C G21C yielded a self-cleavage of 0.02. For C10G C13G G30C G35U, the self-cleavage was 0.01. C10G A26G G27A gave a self-cleavage of 0.03. For C10A G22C G36U, the self-cleavage was 0.02. Work on C10G A14U A16U U32C yielded a self-cleavage of 0.02. C10G C18G A25G gave a self-cleavage of 0.04. With C10G C13U A26G G36A A41U the self-cleavage was 0. For C10G A26G C37U, the self-cleavage was 0.01. For C10G G19U G44A, the self-cleavage was 0.05. C10G C15A C37A showed a self-cleavage of 0. C10G G21U U38C C46A showed a self-cleavage of 0.02. In the case of C10G C31G A41C, the self-cleavage is reported as 0.01. With C10G A14U U38A the self-cleavage was 0.02. With C10G C23G G36U C42G the self-cleavage was 0.01. Variant C10A G19C C37A G40U has a self-cleavage of 0.01.
